Experimental data from the supplement of paper PMC10126150.
Values marked as one replicate rest on one cluster of the flow cell; about a third of the high ones do not repeat.

Test system: ATP
Assay: switch fluorescence ratio, 500 uM ATP over buffer (Cy3 cluster intensity, sum of 5 cycles each) (fold (ratio)); higher = stronger signal-on switching upon ATP binding; sequences stand for … in TCGTCGGCAGCGTCAGATGTGTATAAGAGACAGTTTTTTTTTTTTTTTTTTTTTTTTT…TC
Details: aptamer strand: ATP DNA aptamer (quencher-CACCTGGGGGAGTATTGCGGAGGAAGG + anchor), 100 nM annealed; ATP concentration: 500 uM; one replicate
Summary of the method: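 The quencher-labelled ATP aptamer, at 100 nM, was annealed to Cy3-labelled switching-strand clusters on a modified Illumina MiSeq flow-cell. The clusters were imaged in selection buffer, then after 15 min with 500 uM ATP at 22 °C, and this buffer/ATP cycle ran five times with NaOH stripping and re-annealing between runs. Per-cluster fluorescence ratios, summed target-cycle over summed buffer-cycle Cy3 intensity, were averaged per switch-domain sequence. Clusters outside 100-1000 RFU were excluded.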
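Note: ATP exposure 15 min at 22 °C before imaging.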

| Sequence | switch fluorescence ratio |
| --- | --- |
| CACCTCGACC | 1.12 |
| AAAGCCTCCG | 2.53 |
| TTCCCAGGAT | 4.33 |
| ATCGGGCAGC | 0.979 |
| AGAATCGGAC | 1.1 |
| AACGGTCATC | 1.01 |
| TCATCGGTA | 1.07 |
| ACGGACATGT | 1.04 |
| GCGAAAAAGT | 0.981 |
| TTTGAGCGCC | 0.96 |
| GCGATGGGGG | 1.03 |
| GAACGGATCT | 1.03 |
| AGTGTTAGTA | 1 |
| ATATTAGGCG | 1.04 |
| AAGACGGATA | 0.95 |
| TCCGTAACCG | 1.04 |
| CATTACGTCT | 0.993 |
| TTATTAGAAA | 1.04 |
| TAAGTTTGAA | 0.976 |
| TAGTCATAAC | 0.992 |
| TTCACTGCAG | 0.996 |
| GGGATAGAAT | 0.995 |

| Sequence | switch fluorescence ratio |
| --- | --- |
| TTGGAGATTC | 1 |
| TTGCACGTCC | 1.13 |
| GTATTCATCT | 1.01 |
| AAACCTTCAG | 2.03 |
| GAACCGAGTT | 0.978 |
| ATTAGATTAA | 0.994 |
| TTGTTTGTAC | 1 |
| AAGATTTATC | 1.01 |
| CTGGAACGG | 1.02 |
| GGGGAAGAGC | 1.04 |
| CATGTGCACG | 0.983 |
| GTGGTTTAAG | 0.987 |
| AGCTTTATAT | 1.01 |
| CCACGAACTT | 1.41 |
| TGTGTGGACG | 0.999 |
| GCTAGCAAAT | 0.973 |
| TAGTTTCAAC | 1.04 |
| CCTTGATTGG | 1 |
| CGTTTACGGC | 0.985 |
| AAGTCGGCCT | 0.989 |
| ATTATGCCAC | 1.06 |
| GGCGCTTAA | 0.974 |

| Sequence | switch fluorescence ratio |
| --- | --- |
| ATTTAAATGG | 1.03 |
| ACATGGATGG | 1 |
| ATGGGATCAG | 0.983 |
| CTTATTACAG | 0.979 |
| AGCAATGGTG | 1.46 |
| GATCTACCGC | 1.18 |
| CTGAAGCCGA | 1.21 |
| ATACTGCCCA | 1.3 |
| CTGGAGCCTG | 1.02 |
| CACCAGCTCC | 1.15 |
| GCTTGACCTG | 1.01 |
| TCGGAGCTG | 1.15 |
| TACCCGTAAC | 1.37 |
| TCCACGCATG | 1.5 |
| ATTAAGGTGG | 1.01 |
| TTAACACCTT | 1 |
| TGCTCGGGTA | 1.01 |
| TAATACTAAT | 0.991 |
| CTTGGGCGGC | 0.984 |
| CCCGGGCCGT | 1.01 |
| TCGAATGAAT | 1.01 |
| GGGTCCGAGG | 1.01 |

| Sequence | switch fluorescence ratio |
| --- | --- |
| TCGTAGCCCT | 1.04 |
| GTCGTTGAAG | 0.996 |
| CCTCCTACGT | 2.94 |
| CCAGTGGTGC | 1.2 |
| GACGCCTAGG | 1.05 |
| TAGATGCCTC | 1 |
| TCACGCCTCC | 1.22 |
| CTGATTAGT | 1.01 |
| ACAGCCCTTA | 1.05 |
| TGTATCGGGA | 0.991 |
| TCAGCAT | 0.943 |
| AATATAACAT | 1.01 |
| ACTCGGAGTT | 0.991 |
| TGTCGTAGCT | 1.01 |
| AGTCTCCCGG | 1.45 |
| CTCATGAGAC | 1.02 |
| ATACCATGC | 1 |
| CTGCTCTCGG | 1.04 |
| AATTAGTGCG | 0.981 |
